Reference: PubChem BioAssay AID686979 (National Center for Advancing Translational Sciences (NCATS), 2013)
Out of some 420,000 compounds screened, about 50,000 (12%) were called active. Inconclusive means that the source gave no clear call. Such entries were picked first, then a sample of the others. The call rests on the fitted dose curve; in most records, active means well fitted inhibition curve with a large enough effect; inconclusive means small, poorly fitted or top-dose-only effect; inactive means flat fitted curve, though single readings scatter. Potencies of inconclusive entries are left out as doubtful fits.

Assay: qHTS for Inhibitors of human tyrosyl-DNA phosphodiesterase 1 (TDP1): qHTS in cells in presence of CPT; further: nearly all actives have a fitted effect of over 55% in size
Details: chicken DT40 Tdp1-/-;hTDP1 cells + 20 nM CPT, ATP luminescence, 48 h; activity change, negative = growth inhibition: at 46.2 µM (top of the series) unless noted
Summary of the method: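 Cell growth measured by CellTiter-Glo luminescence after a minimum 48 h, 37 C compound exposure with 20 nM CPT in Tdp1-knockout DT40 cells stably expressing hTDP1, seeded 400/well; qHTS titration format.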
On the % scale 0 is the no-effect control and ±100 the full control effect; potency means the concentration at half of the fitted maximal effect; tags describe the fitted curve by direction and shape.

Compound | Potency | activity change, negative = growth inhibition
Nc1ccccc1SC(CC(=O)c1ccccc1)c1ccc([N+](=O)[O-])cc1 (centres undefined) | active: 14.6 µM | –
CCc1ccc(-c2nc(CCl)cs2)cc1 | active: 11.6 µM | –
N#Cc1cccc(-c2cc(NCc3cccnc3)ncn2)c1 | inactive | –
CCOc1ccccc1NC(=O)c1cc(S(=O)(=O)NCc2ccco2)ccc1F | active: 14.6 µM | –
Cc1nc(N2CCOCC2)c2c(C(=O)N3CCN(c4cccc(C)c4C)CC3)c(C)oc2n1 | inconclusive [inhibitor, single point] | –
Cn1c(=O)n(C)c2cc(NC(=O)COc3ccc(F)cc3F)ccc21 | inconclusive [inhibitor, single point] | –
CC(C)(C)NC(=S)NCc1ccncc1 | inactive | –
CN(Cc1ccccc1F)C(=O)CN1c2cccc3cccc(c23)S1(=O)=O | inconclusive [inhibitor, single point] | –
COC(=O)c1ccccc1NC(=O)Cn1c(=O)n(CCCC(=O)NCCc2ccc(OC)c(OC)c2)c(=O)c2ccccc21 | inactive | –
Cc1ccc(C)c(C(=O)CCC(=O)NNC(=O)Cn2nc(C)cc2C)c1 | inconclusive [inhibitor, full curve, poor fit] | –
Cc1cc(Cl)ccc1OCC(=O)Nc1ccccc1CO | inconclusive [inhibitor, single point] | –
Cc1cc(C)c(NC(=O)CCC(=O)N2Cc3ccccc3Oc3ncccc32)c(C)c1 | inconclusive [inhibitor, single point] | –
CCOC(=O)CSC1=NC(=O)/C(=C\c2ccc(Cl)cc2)S1 | active: 4.61 µM | –
c1ccc(N(c2ccccc2)c2nc(N3CCCC3)nc(-n3ccnc3)n2)cc1 | inconclusive [inhibitor, single point] | –
CC(C)[C@H](NC(=O)OCc1ccccc1)C(=O)OCC(=O)NCc1ccco1 | inactive | –
Cc1ccc(S(=O)(=O)N(C)c2ccc(OC(=O)CN3C(=O)NC4(CCCC4)C3=O)cc2)cc1 | inconclusive [inhibitor, single point] | –
CCCNC(=O)C(Cc1ccc(F)cc1)NC(=O)c1ccc(C#N)cc1 (centres undefined) | inactive | –
COc1ccc(Nc2cc(C)c3cc(NC(=O)c4cc(OC)cc(OC)c4)ccc3n2)cc1 | active: 9.2 µM | –
Cc1ccc(C)c(NC(=O)NCc2ccc3c(c2)CCN3C(=O)c2ccccc2)c1 | active: 20.6 µM | –
Cc1cnc(NC(=O)c2sc3ccccc3c2Cl)s1 | inconclusive [inhibitor, partial curve, poor fit] | –
CCN(CC(=O)Nc1ccccc1C(F)(F)F)C(=O)CCc1nc2sc3c(c2c(=O)[nH]1)CCCC3 | inconclusive [inhibitor, single point] | –
CCN1C(=O)C(CC(=O)Nc2ccc(OC)cc2)N(CCN2CCOCC2)C1=S (centres undefined) | inactive | –
Oc1ccccc1C1OCC2(CO1)COC(c1ccccc1O)OC2 (centres undefined) | inconclusive [inhibitor, partial curve, poor fit] | –
N#Cc1ccc(-c2ccc(Cl)cc2)nc1SCC(=O)c1cccc(Cl)c1 | inconclusive [inhibitor, single point] | –
CCNC(=S)N1CCC(c2nc3ccccc3s2)CC1 | inactive | –

Compound | Potency | activity change, negative = growth inhibition
O=C1c2ccccc2-c2n[nH]c(=O)c3ccc(N4CCCCC4)c1c23 | active: 9.2 µM | –
CCOC(=O)c1oc2cc(O)cc(O)c2c(=O)c1OCc1ccccc1 | active: 18.4 µM | –
COc1cccc(-c2cnc(C(O)c3c(C)ccc4ccccc34)[nH]2)c1 (centres undefined) | inconclusive [inhibitor, single point] | –
O=C(COc1ccc(Cl)cc1Cl)NCCCCc1ccccc1 | inactive | –
Cc1ccc(-n2nc3c(=O)n(C(C)C(=O)NCc4ccccc4Cl)nc(C)c3c2C)cc1 (centres undefined) | inconclusive [inhibitor, single point] | –
CCOC(=O)C1=C(COC(=O)c2ccccc2OC)NC(=O)NC1C (centres undefined) | inconclusive [inhibitor, single point] | –
Cc1ccc(NC(=O)CN(C)C(=O)c2ccc3[nH]c4c(c3c2)CC(C)CC4)cc1 (centres undefined) | inconclusive [inhibitor, single point] | –
O=C(C1CCN(S(=O)(=O)N2CCC3(CC2)OCCO3)CC1)N1CCc2ccccc2C1 | inconclusive [inhibitor, partial curve] | –
O=C(Nc1ccccc1Oc1ccccc1)C1CCCC1 | inactive | –
CCN(c1ccc(C(=O)CN2C(=O)NC3(CCOc4ccccc43)C2=O)cc1)S(C)(=O)=O (centres undefined) | inconclusive [inhibitor, single point] | –
CC(=O)c1ccc(N2CCN(C(=O)c3ccc(Cn4c(=O)[nH]c5ccccc5c4=O)cc3)CC2)cc1 | active: 10.3 µM | –
CCN(CC)CCN1C(=O)c2ccccc2NC1c1cccc(F)c1 (centres undefined) | – | inconclusive: -31.8% [inhibitor]
COc1cc(=O)n(C)c2c(OCC3OC(C)(C)OC3(C)C)cccc12 (centres undefined) | inactive | –
CS(=O)(=O)N1CCN(c2ccc([N+](=O)[O-])c(SCc3ccco3)c2)CC1 | inconclusive [inhibitor, single point] | –
Cc1c(N)cccc1Cl | inactive | –
O=C(N/N=C/c1ccc(Cl)cc1)c1n[nH]c2c1CCCC2 | active: 0.58 µM | –
COc1ccc2nc(NC(=O)Nc3cccc4ccccc34)sc2c1 | inconclusive [inhibitor, single point] | –
CC(C)c1ccc(NC(=O)CCC(=O)NCc2ccco2)cc1 | inconclusive [inhibitor, single point] | –
Cc1ccc(C(=O)NNC(=O)CSc2nnc(C3CC3)n2C)cc1 | inactive | –
CCOC(=O)C1CCN(C(=O)c2oc3ccc(S(=O)(=O)N4CC(C)CC(C)C4)cc3c2C)CC1 (centres undefined) | active: 18.4 µM | –
Cc1ccc(NS(=O)(=O)c2cccc(C(=O)Nc3cccnc3)c2)c(C)c1 | inconclusive [inhibitor, single point] | –
COc1ccc(-c2noc(CN(C(=O)C(C)(C)C)C(C)C)n2)cc1 | inconclusive [inhibitor, partial curve, poor fit] | –
CN(CC(=O)Nc1ccc(F)c(Cl)c1)S(=O)(=O)c1cccc2nsnc12 | active: 20.6 µM | –
COc1ccc(NC(=O)CCC(=O)N2CCC(c3ccccc3)=N2)cc1S(=O)(=O)N1CCCCC1 | inconclusive [inhibitor, single point] | –
CC(C)(C)C(=O)Nc1ccc(S(=O)(=O)Nc2ccccn2)cc1 | inactive | –

Compound | Potency | activity change, negative = growth inhibition
CC1CCCCC1NC(=O)CN(C)S(=O)(=O)c1ccc2c(c1)c(=O)n(C)c(=O)n2C (centres undefined) | inactive | –
Cc1cccc(C)c1OC(=O)c1ccccc1 | inactive | –
CC(C)c1ccc(NC(=O)C2(C)Cc3ccccc3C(=O)O2)cc1 (centres undefined) | inconclusive [inhibitor, single point] | –
CCOC(=O)c1c(-c2ccccc2Cl)cn2ccccc12 | inconclusive [inhibitor, partial curve] | –
O=C1c2ccccc2C(O)(Cc2ccccc2)N1c1ccc2c(c1)OCO2 (centres undefined) | inconclusive [inhibitor, single point] | –
CCC(CC)COC(=O)C(C#N)c1nc2ccccc2nc1N1CCOCC1 (centres undefined) | inconclusive [inhibitor, single point] | –
Cc1ccc(N2C(=O)C3C4C=CC(CC4)C3C2=O)cc1Cl (centres undefined) | inactive | –
O=C(Nc1ccc(Cl)cc1)N(Cc1nc2ccccc2c(=O)[nH]1)Cc1cccs1 | inconclusive [inhibitor, single point] | –
COc1ccc(-n2nc(C(=O)NCC(=O)Nc3cccc(C)n3)c3ccccc3c2=O)cc1 | inconclusive [inhibitor, single point] | –
O=C(Nc1ccc(S(=O)(=O)N2CCCC2)cc1)Nc1ccc(F)cc1F | inconclusive [inhibitor, single point] | –
CCS(=O)(=O)Nc1cccc(C2=NN(C(=O)c3ccco3)C(c3ccco3)C2)c1 (centres undefined) | active: 4.61 µM | –
O=C(Nc1cccc(S(=O)(=O)NC2=NCCC2)c1)c1ccc(F)cc1F | inconclusive [inhibitor, single point] | –
CCc1ccc(-c2cc(C)no2)cc1S(=O)(=O)NCCc1ccc(S(N)(=O)=O)cc1 | inconclusive [inhibitor, single point] | –
Cc1ccc2c(c1)-c1c(cnn1CC(=O)N1CCN(c3cc(Cl)ccc3C)CC1)CO2 | inconclusive [inhibitor, single point] | –
COc1ccc(NS(=O)(=O)c2cc(OC)ccc2OC)cc1 | inactive | –
CC(=O)c1ccc(NC(=O)c2cc(-c3cccs3)on2)cc1 | inactive | –
CCOCCn1c(N2CCCC2)nc2c1c(=O)[nH]c(=O)n2C | inactive | –
O=c1cc[nH]c2ccc(Cl)cc12 | inactive | –
Cc1ccc(N=C2CCCN2Cc2ccccc2)c(C#N)c1 | inconclusive [inhibitor, single point] | –
CCn1c(/C=C/c2ccccc2)nc2ccccc21 | inconclusive [inhibitor, single point] | –
COC(=O)c1ccccc1NC(=O)N1CCN(C(=O)c2ccco2)CC1 | inactive | –
O=C(c1ccccc1)c1ccc2nc(Nc3cc(Cl)ccc3O)c3nncn3c2c1 | inconclusive [inhibitor, partial curve] | –
COc1ccc(NC(=O)CSc2nc(C)cs2)cc1OC | inactive | –
CCOC(=O)N1CCN(C(=O)c2ccccc2N(Cc2ccccc2)S(=O)(=O)c2ccccc2)CC1 | active: 20.6 µM | –
